“And” between values parts separate entries of the source, which are not always exact repeats. Identical values can stand only once. The list shows a part of the results. These are further read-outs of the screen, such as a control signal, another cell line or another target. No call is given for them. The list favours compounds with an active or inconclusive main result. Words in brackets tell the shape of the fitted curve; partial curves, single points and poor fits give uncertain potencies.
Assay: qHTS Assay for Lipid Storage Modulators (AID 1519)
Conditions: Drosophila S3 cells, BODIPY lipid droplet/cell ratio, laser cytometry; measured here: cell count channel max response; cells loaded with oleic acid
Method in brief: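 Cells seeded at 5,000 per well were treated with compounds over a concentration series and loaded with oleic acid (400 uM, as added). Lipid droplet fluorescence (488 nm excitation, 500-530 nm channel) was read by laser-scanning cytometry and normalized to 20 uM Triacsin C.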
Work on `Cc1c(C(=O)c2ccc3ccccc3c2)c2cccc3c2n1[C@H](CN1CCOCC1)CO3` yielded a max response of 102%. For `CC1=NCCc2c1[nH]c1cc(O)ccc21`, the max response was 84.8%. In the case of `COc1cc2c(cc1OC)-c1c(OC)c(OC)c(C=O)c3c1[C@H](C2)N(C)CC3`, the max response is reported as 84.9%. `CCCCCCCCCCCCCC(=O)OC1C(C)[C@@]2(O)C(C=C(CO)C[C@]3(O)C(=O)C(C)=C[C@H]23)[C@@H]2C(C)(C)[C@]12OC(C)=O` (some centres not stated) showed a max response of 25%. For `CN(C)C(=O)Oc1ccc[n+](C)c1`, the max response was 37.3% and 56.2%. For `c1cc2cc(c1)C[n+]1ccc(c3ccccc31)NCc1ccc(cc1)CNc1cc[n+](c3ccccc13)C2`, the max response was 19.2%. For `COc1cc2c(cc1O)-c1c(O)c(OC)cc3c1[C@H](C2)N(C)CC3`, the max response was 67.4%. `NC(=NCCc1ccc(I)cc1)SCCCc1cnc[nH]1` gave a max response of 101%. `CN1Cc2ccccc2[C@@H]2c3cccc4[nH]cc(c34)C[C@H]21` gave a max response of 15.8%. Compound `NC[C@H](CP(=O)(O)O)c1ccc(Cl)cc1` has a max response of 33.5%. Compound `CN1C[C@@H](C(=O)N[C@@]2(C)O[C@]3(O)C4CCCN4C(=O)[C@@H](Cc4ccccc4)N3C2=O)C=C2c3cccc4[nH]cc(c34)C[C@@H]21` (some centres not stated) has a max response of 60.4%. Compound `c1ccc(CN2CCC3(CCc4ccccc43)CC2)cc1` has a max response of 56.4%. Compound `C[C@H](N)Cc1cnc[nH]1` has a max response of 53.2%. `COc1ccc(CC2c3cc(OC)c(OC)cc3CCN2C)cc1OC` (configuration not stated) gave a max response of 116%. `COc1ccc(NC(=O)N2CC3(CCN(C(=O)Oc4ccccc4)CC3)C2)cc1` gave a max response of 17.2%. In the case of `C=C(C)CN1CC[C@@]23c4c5ccc(O)c4O[C@H]2c2[nH]c4ccccc4c2C[C@]3(O)[C@@H]1C5`, the max response is reported as 45.2%. For `CN1CCN(C(=O)O[C@@H]2c3nccnc3C(=O)N2c2ccc(Cl)cn2)CC1`, the max response was 30.7%. `CN(C)C(=O)Oc1cc(OC(=O)N(C)C)cc(C(O)CNC(C)(C)C)c1` (configuration not stated) gave a max response of 34.7%. Work on `O=C1Nc2cc(Cl)c(Cl)cc2N2CCNC[C@H]12` yielded a max response of 79.5%. In the case of `CS(=O)c1ccc(-c2nc(-c3ccc(F)cc3)c(-c3ccncc3)[nH]2)cc1` (configuration not stated), the max response is reported as 91.6% and 93%. Compound `CC(C)=CCCC1(C)C=Cc2c(O)c3c(c(CC=C(C)C)c2O1)OC12C(=CC4CC1C(C)(C)OC2(C/C=C(/C)C(=O)O)C4=O)C3=O` (configuration not stated) has a max response of -63%. `COc1cc2c(c(OC)c1OC)-c1ccc(OC)c(=O)cc1[C@H](NC(C)=O)CC2` gave a max response of 61.9%. For `CCCN1CCC[C@H](c2cccc(O)c2)C1`, the max response was -35.9%.

Same assay, conditions: Drosophila S3 cells, BODIPY lipid droplet/cell ratio, laser cytometry; measured here: cell number channel AC50; cells loaded with oleic acid
In the case of `C[C@@H](C(=O)O)c1ccc(-c2ccccc2)c(F)c1`, the AC50 is reported as 11.2 µM [rising, full curve, poor fit]. With `CN(C(=O)Cc1ccc(Cl)c(Cl)c1)[C@H](CN1CCCC1)c1cccc(N=C=S)c1` the AC50 was 14.1 µM [rising, partial curve]. For `COc1cc2c(cc1OC)[C@@H]1C(=O)c3ccc4c(c3OC1CO2)CC(C(C)C)O4` (some centres not stated), the AC50 was 0.282 µM [falling, full curve]. In the case of `CN(C)C(=O)Oc1cccc([N+](C)(C)C)c1`, the AC50 is reported as 0.631 µM [falling, full curve, poor fit]. For `Ic1cncc(OC[C@@H]2CCN2)c1`, the AC50 was 35.5 µM [rising, partial curve, poor fit]. With `NC(=O)CN1CCCC1=O` the AC50 was 0.0562 µM [falling, full curve, poor fit]. For `COc1ccc(NC(=O)N2CCCC3(CCN(C(=O)Oc4ccccc4)CC3)C2)cc1`, the AC50 was 1.41 µM [rising, full curve, poor fit]. In the case of `C=CCN1C[C@H](C)N([C@H](c2ccc(C(=O)N(CC)CC)cc2)c2cccc(O)c2)C[C@H]1C`, the AC50 is reported as 28.2 µM [rising, partial curve, poor fit]. In the case of `C[C@@H]1O[C@H](C[N+](C)(C)C)CS1`, the AC50 is reported as 39.8 µM [rising, single point]. With `CC(=O)N1CCN(c2ccc(OC[C@@H]3CO[C@@](Cn4ccnc4)(c4ccc(Cl)cc4Cl)O3)cc2)CC1` the AC50 was 7.94 µM [falling, single point]. With `COC(=O)/C(C)=C\CC12OC(C)(C)C3CC(C=C4C(=O)c5c(OC)c6c(c(CC=C(C)C)c5OC431)OC(C)(CCC=C(C)C)C=C6)C2=O` (configuration not stated) the AC50 was 11.2 µM [falling, partial curve]. In the case of `C=C1CCC(O)C/C1=C\C=C1/CCCC2(C)C1CCC2C(C)CCCC(C)C` (configuration not stated), the AC50 is reported as 35.5 µM [rising, partial curve, poor fit]. For `COc1ccc2c3c([nH]c2c1)C(C)=NCC3`, the AC50 was 17.8 µM [rising, partial curve, poor fit]. For `Clc1ccc(COC(Cn2ccnc2)c2ccc(Cl)cc2Cl)c(Cl)c1` (configuration not stated), the AC50 was 20 µM [falling, single point]. In the case of `NCCCP(=O)(O)CC1CCCCC1`, the AC50 is reported as 35.5 µM [rising, single point]. In the case of `CC1CC[C@@]2(OC1)O[C@@H]1[C@@H](O)[C@H]3C4CC[C@H]5C[C@@H](O[C@@H]6O[C@H](CO)[C@H](O[C@@H]7O[C@H](CO)[C@@H](O)[C@H](O[C@@H]8OC[C@@H](O)[C@H](O)[C@H]8O)[C@H]7O[C@@H]7O[C@H](CO)[C@@H](O)[C@H](O[C@@H]8O[C@H](CO)[C@@H](O)[C@H](O)[C@H]8O)[C@H]7O)[C@H](O)[C@H]6O)[C@H](O)C[C@]5(C)C4CC[C@]3(C)[C@H]1[C@@H]2C` (some centres not stated), the AC50 is reported as 39.8 µM [rising, single point]. With `Cc1c(C(=O)c2ccc3ccccc3c2)c2cccc3c2n1[C@H](CN1CCOCC1)CO3` the AC50 was 11.2 µM [rising, partial curve]. With `CC1=NCCc2c1[nH]c1cc(O)ccc21` the AC50 was 10 µM [rising, partial curve, poor fit]. With `COc1cc2c(cc1OC)-c1c(OC)c(OC)c(C=O)c3c1[C@H](C2)N(C)CC3` the AC50 was 2.24 µM [rising, full curve]. With `CCCCCCCCCCCCCC(=O)OC1C(C)[C@@]2(O)C(C=C(CO)C[C@]3(O)C(=O)C(C)=C[C@H]23)[C@@H]2C(C)(C)[C@]12OC(C)=O` (some centres not stated) the AC50 was 3.55 µM [rising, full curve, poor fit]. With `CN(C)C(=O)Oc1ccc[n+](C)c1` the AC50 was 28.2 µM [rising, single point]. In the case of `c1cc2cc(c1)C[n+]1ccc(c3ccccc31)NCc1ccc(cc1)CNc1cc[n+](c3ccccc13)C2`, the AC50 is reported as 6.31 µM [rising, full curve, poor fit]. For `COc1cc2c(cc1O)-c1c(O)c(OC)cc3c1[C@H](C2)N(C)CC3`, the AC50 was 14.1 µM [rising, partial curve]. In the case of `NC(=NCCc1ccc(I)cc1)SCCCc1cnc[nH]1`, the AC50 is reported as 28.2 µM [rising, partial curve]. In the case of `CN1Cc2ccccc2[C@@H]2c3cccc4[nH]cc(c34)C[C@H]21`, the AC50 is reported as 0.398 µM [rising, full curve, poor fit]. For `NC[C@H](CP(=O)(O)O)c1ccc(Cl)cc1`, the AC50 was 14.1 µM [rising, full curve, poor fit]. With `CN1C[C@@H](C(=O)N[C@@]2(C)O[C@]3(O)C4CCCN4C(=O)[C@@H](Cc4ccccc4)N3C2=O)C=C2c3cccc4[nH]cc(c34)C[C@@H]21` (some centres not stated) the AC50 was 31.6 µM [rising, partial curve, poor fit]. With `c1ccc(CN2CCC3(CCc4ccccc43)CC2)cc1` the AC50 was 35.5 µM [rising, partial curve, poor fit]. In the case of `C[C@H](N)Cc1cnc[nH]1`, the AC50 is reported as 35.5 µM [rising, single point]. With `COc1ccc(CC2c3cc(OC)c(OC)cc3CCN2C)cc1OC` (configuration not stated) the AC50 was 15.8 µM [rising, partial curve, poor fit]. With `COc1ccc(NC(=O)N2CC3(CCN(C(=O)Oc4ccccc4)CC3)C2)cc1` the AC50 was 0.0891 µM [rising, full curve, poor fit]. For `C=C(C)CN1CC[C@@]23c4c5ccc(O)c4O[C@H]2c2[nH]c4ccccc4c2C[C@]3(O)[C@@H]1C5`, the AC50 was 39.8 µM [rising, single point]. In the case of `CN1CCN(C(=O)O[C@@H]2c3nccnc3C(=O)N2c2ccc(Cl)cn2)CC1`, the AC50 is reported as 14.1 µM [rising, single point]. With `CN(C)C(=O)Oc1cc(OC(=O)N(C)C)cc(C(O)CNC(C)(C)C)c1` (configuration not stated) the AC50 was 39.8 µM [rising, single point]. With `O=C1Nc2cc(Cl)c(Cl)cc2N2CCNC[C@H]12` the AC50 was 28.2 µM [rising, partial curve, poor fit]. In the case of `CS(=O)c1ccc(-c2nc(-c3ccc(F)cc3)c(-c3ccncc3)[nH]2)cc1` (configuration not stated), the AC50 is reported as 7.08 µM [rising, partial curve] and 12.6 µM [rising, partial curve]. With `CC(C)=CCCC1(C)C=Cc2c(O)c3c(c(CC=C(C)C)c2O1)OC12C(=CC4CC1C(C)(C)OC2(C/C=C(/C)C(=O)O)C4=O)C3=O` (configuration not stated) the AC50 was 28.2 µM [falling, partial curve, poor fit]. With `COc1cc2c(c(OC)c1OC)-c1ccc(OC)c(=O)cc1[C@H](NC(C)=O)CC2` the AC50 was 1 µM [rising, full curve, poor fit]. For `CCCN1CCC[C@H](c2cccc(O)c2)C1`, the AC50 was 7.08 µM [falling, full curve, poor fit].

Source: PubChem BioAssay (NCATS)
Tags describe the fitted curve by direction and shape.
